Experimental data as given in PMC12136788.
The list shows a part of the results.

T1: UNK ZnF1-6 (called full-length) (human, UniProt Q9C0B0 30-357)
T1 sequence: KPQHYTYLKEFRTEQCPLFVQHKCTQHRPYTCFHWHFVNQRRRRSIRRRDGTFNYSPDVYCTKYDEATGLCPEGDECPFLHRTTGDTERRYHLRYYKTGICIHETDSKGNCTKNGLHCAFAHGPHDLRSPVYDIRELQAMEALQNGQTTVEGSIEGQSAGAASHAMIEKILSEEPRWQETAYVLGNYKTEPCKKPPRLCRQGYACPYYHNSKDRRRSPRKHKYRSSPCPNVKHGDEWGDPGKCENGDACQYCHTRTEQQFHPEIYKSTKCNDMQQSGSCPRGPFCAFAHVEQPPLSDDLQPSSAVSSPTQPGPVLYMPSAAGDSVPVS

B1: chr2:33399154:33399255:+|3pUTR|ENSG00000049323|msi1|FALSE|unique (ssRNA)
RNA: GGGAGUUCUACAGUCCGACGAUCAAGUACUUUAUAUUUUCAGUGUUUUGUCUGAUUUUAAUGUCCGUUCUUAGCCAAGCUGCUAGCAGGUGUUAAUUGGAUCCCUUUCCUUCACUGAAAUGGAAGAGUUUAUAAGCUUACGUUCAACAGAGGAUUGAGCAUCA
B2: chr5:180576808:180576909:+|3pUTR|ENSG00000113300|unk|FALSE|unique (ssRNA)
RNA: GGGAGUUCUACAGUCCGACGAUCUAUUUUCCGUGUCCUAAAUAAUUUUCAAUAAUCUAUAAUCCCUAAAAUGCAAUAAAAACUAGUAUGUUUUCACGGUGUAUAUUUUUUUUCAAAAAUUCUGUAACAAAUAUAUUUAAUGUGCAACAGAGGAUUGAGCAUCA
B3: chr12:39619279:39619382:-|CDS|ENSG00000173208|unk|FALSE|unique (ssRNA)
RNA: GGGAGUUCUACAGUCCGACGAUCCGAGACCAUUUGUGAAAAACCUUCGCCUGGAGUGAAUGCAGAUUUCUUCAAACAGCUACUAGAACUUCGGAAAAUUUUGUUUCCAAAACUUGUGACCACUGAAACAGGGUGGCUCUGCCUCAACAGAGGAUUGAGCAUCA
B4: ENSG00000198589:be:win_9551|3pUTR|ENSG00000198589|bound_else_gene|NA|bound_elsewhere_windowed (ssRNA)
RNA: GGGAGUUCUACAGUCCGACGAUCUGUGUGGAAUUCUGUGAAAAAUAUUUGAGAAAAGGCCUGUAUUGCAUAAAUAAAUUCUUUGUAUGUUGUGAACUUUGAUCUCUAUUUCUCUUGCAACAGACUUCAAGUGGUCCCUCUUUUCAACAGAGGAUUGAGCAUCA
B5: chr1:40073325:40073426:-|3pUTR|ENSG00000131238|msi1|FALSE|unique (ssRNA)
RNA: GGGAGUUCUACAGUCCGACGAUCGAGGGAAGUAGCACCCAAAUUAAGUUGCUUAAGAGAGGAAAUGUACAUCUUGUAUAACUUAGGGAGCGAAGAAAAUGUAGGCGCGAAAGUGAAAAGUGAGGCAGCUAGUUCUUCCUAUUCCAACAGAGGAUUGAGCAUCA
B6: chr21:36416827:36416928:+|3pUTR|ENSG00000159259|unk|total|mutant (ssRNA)
RNA: GGGAGUUCUACAGUCCGACGAUCAACUUUGGAAGGCCGUUGUGUUUGUUUUCUGAUUUUAAAGGUGACGAUGCUUAUUCUUUCCGUAACUAAGUGAAGUGAAAAAGAUGGGUAUCACCCAUCAUCUUCCCACCAGAAGUAACCCAACAGAGGAUUGAGCAUCA
B7: chr2:216672374:216672548:-|3pUTR|ENSG00000115461|msi1|total|mutant (ssRNA)
RNA: GGGAGUUCUACAGUCCGACGAUCUUUUUCUUUUUUUUUUUGAAGACAGCAAUAACCACAGUACAUAUUACUGCCGUUCUCUACCGUUUUACAUACAUUCAUACCAUAACUCUGUUCUCUCCUCUUUUUUGUUUUCAACUUUAACAACAGAGGAUUGAGCAUCA
B8: ENSG00000107863:be:win_6301|3pUTR|ENSG00000107863|bound_else_gene|NA|bound_elsewhere_windowed (ssRNA)
RNA: GGGAGUUCUACAGUCCGACGAUCAUUGGUAACAGAUAUCAUUACAUUUACCAGUUUUAACACAGGUGGAUACAGAACUUCCAUUCUUUAGUCAUUCCAGGUGGAUCUGAGUUUUAUAUUCAAACUUUUAAUACAGUUUUUGAGCAACAGAGGAUUGAGCAUCA
B9: chr12:907890:907991:+|CDS|ENSG00000060237|msi1|total|mutant (ssRNA)
RNA: GGGAGUUCUACAGUCCGACGAUCGCCUCCUGCCAUGACGUCCAGCAGGAAGGGCACAUUCACAGAUGACUUGCACAAGUUGGCCGACAAUUGGGCCCGAGAUGCCAUGAAUCUCUCAGGCAGGAGAGGAAGCAAAGGGCACAUCAACAGAGGAUUGAGCAUCA
B10: chr12:76029359:76029534:-|3pUTR|ENSG00000139289|msi1|FALSE|unique (ssRNA)
RNA: GGGAGUUCUACAGUCCGACGAUCAGAAGUUUAAAAAGCUAAAAGUUAAAAAUGGUGUAAUUAUGAAAAUCUAACACUCAAGAUAGUUUCUAAAAGGAAAUCAGUAGUUAAGGAUACCUGAUUUCAAAAUAUUUAAAGCAUAACCAACAGAGGAUUGAGCAUCA
B11: chr11:18933498:18933815:-|three_prime_utr|ENSG00000170255|control|control|control (ssRNA)
RNA: GGGAGUUCUACAGUCCGACGAUCAGACAGGACUUUGAGAGCAACACUGCCCUGCCACCCUUGACAAUUAUAUGCGUUUUUCUUAGCCUUCUGCCUCAGAAAUGUCUCAGUGGUUCCUCAAGGUCUUCAAAUAGAUGUUUAUCUCAACAGAGGAUUGAGCAUCA
B12: chr12:39553730:39553837:-|3pUTR|ENSG00000173208|unk|FALSE|unique (ssRNA)
RNA: GGGAGUUCUACAGUCCGACGAUCGAAGUAUGUUAAGCUAAGCACAGAGAAAAAAAGGCAGCAAGACAUGUUUUAUAAGAUUUUAGCAUUAAGGAAGUAUAUGAUCUGACUUUUCAGAAGAAAAUAAACAAAUGCAUUAUGUAACAACAGAGGAUUGAGCAUCA
B13: chr1:112701350:112701454:-|3pUTR|ENSG00000155366|unk|total|mutant (ssRNA)
RNA: GGGAGUUCUACAGUCCGACGAUCGGCUCCAUGCUGAAGGCUCCCAUUUUCAGUUCCCUCCUGCCCAGGACUGCAUUGUUUUCCCGCCCCGAGGUGGUGGCACGGGCCCUCCCUCCCAGCGCUCUGGGAGCCACGCCUAUGCCCCAACAGAGGAUUGAGCAUCA
B14: chr1:248850005:248850516:-|three_prime_utr|ENSG00000171163|control|control|control (ssRNA)
RNA: GGGAGUUCUACAGUCCGACGAUCUUCCCCUGUGAAUUCUGCGGCAAGCGCUUUGAGAAGCCAGACAGUGUUGCAGCCCACCGUAGCAAAAGUCACCCAGCCCUGCUUCUAGCCCCUCAAGAGUCACCCAGUGGUCCCCUAGAGCAACAGAGGAUUGAGCAUCA
B15: ENSG00000136451:be:win_951|CDS|ENSG00000136451|bound_else_gene|NA|bound_elsewhere_windowed (ssRNA)
RNA: GGGAGUUCUACAGUCCGACGAUCUACAUGUAAACAAGGCAUCAGUAAAACAUGCAUGAGUGAAGAGACCAGUAACCAAAAGCAGCAGCAGCAGCAGCAGCAGCAGCAGCAGCAGCAGCAACAACAACAACAACAACAUGUGACCAACAGAGGAUUGAGCAUCA
B16: chr11:118373572:118373686:+|CDS|ENSG00000110344|unk|FALSE|bound_elsewhere (ssRNA)
RNA: GGGAGUUCUACAGUCCGACGAUCGAAGACCUUGCUGGGAGUAAUUCUGAGUAUCUCCUGCUUAUUAAAGACUCCGGGUGUUGUAGAAAAUCAUGGCUACUUUUUGAAUCCAUCUCGUUCCAGCCCCCAGGAGAUCAAAGUACACAACAGAGGAUUGAGCAUCA
B17: chr5:151662667:151662729:-|3pUTR|ENSG00000113140|msi1_unk|total|mutant (ssRNA)
RNA: GGGAGUUCUACAGUCCGACGAUCGCCAGGCUGUUUCAGCCAGGAAGGCCAAAAUCAAGAGUGAGAUGCCGAAAGUUGUAAAACCGAAAAAGUGGAGUUGGUGAAUCGGUUGUUCUUUCCUCACAUUUGGAUGAUUGUCAUAAGCAACAGAGGAUUGAGCAUCA
B18: chr19:41330322:41331077:-|three_prime_utr|ENSG00000105329|control|control|control (ssRNA)
RNA: GGGAGUUCUACAGUCCGACGAUCGUCUGCACUAUUCCUUUGCCCGGCAUCAAGGCACAGGGGACCAGUGGGGAACACUACUGUAGUUAGAUCUAUUUAUUGAGCACCUUGGGCACUGUUGAAGUGCCUUACAUUAAUGAACUCCAACAGAGGAUUGAGCAUCA
B19: ENSG00000070961:be:win_5151|3pUTR|ENSG00000070961|bound_else_gene|NA|bound_elsewhere_windowed (ssRNA)
RNA: GGGAGUUCUACAGUCCGACGAUCUAACAGAUUAGGUAAAAUGAGAUUACAUGAAAAGGUUCUAAAAUGAUAUAUUUAGAUGCAAUAAUUAACCAUAUGCUAGAAUGCCCACCUCUAAGCCAAUUGGAUUCUUUAGCUCUCUUUCAACAGAGGAUUGAGCAUCA
B20: chr17:32711987:32712195:-|CDS|ENSG00000176658|control|control|control (ssRNA)
RNA: GGGAGUUCUACAGUCCGACGAUCUCCUUCAGACAAAGAGGCUGUCAAGAAACUAAUUGAACGGUGUGGUUUUCAGGAUGAUGUAGCUUAUGGGAAGACCAAAAUUUUCAUUCGAACACCCCGAACAUUGUUUACCUUGGAAGACAACAGAGGAUUGAGCAUCA
B21: ENSG00000107863:be:win_1751|CDS|ENSG00000107863|bound_else_gene|NA|bound_elsewhere_windowed (ssRNA)
RNA: GGGAGUUCUACAGUCCGACGAUCAAAAAAUUCCACCAGAUCUAAAAACAUUGCAGUCAAACAGAAAUUUUCAGACUACUUGUGGAAUGUCACUGCCUCGGGGUAUUUCACAAGACAGGUCACCUCUUGUGAAAGUCCGAAGUACAACAGAGGAUUGAGCAUCA
B22: chr16:3436009:3436110:-|3pUTR|ENSG00000167981|unk|FALSE|unique (ssRNA)
RNA: GGGAGUUCUACAGUCCGACGAUCAUUAAAAUGAAGGCUCUUGCUAAAGUUAUUUUAAUUUUGUUUACGUAGUUUCUGACUUUUAGAAGGAGGAGAAUUUAUUUAUAUUUUGCCAGUUCUGCAGACAUAUCUAGGAAAGUAAAUCAACAGAGGAUUGAGCAUCA

Target: T1, UNK ZnF1-6 (called full-length)
Assay: nsRBNS (natural sequence RNA bind-n-seq); RBNS binding buffer (assumed for nsRBNS): 25 mM Tris pH 7.5, 150 mM KCl, 3 mM MgCl2, 0.01% Triton X-100, 500 ug/ml BSA, 20 U/ml SUPERase-In, 4 C; UNK is unkempt and MSI1 is Musashi-1; names of the RNAs are library labels; protein concentration not given here; high values mean tight binding

Binder | binding signal [enrichment R]
B1 | 0.428
B2 | 20.9
B3 | 0.459
B4 | 0.54
B5 | 0.9
B6 | 0.212
B7 | 1.89
B8 | 2.39
B9 | 0.784
B10 | 1.92
B11 | 1.46
B12 | 0.997
B13 | 0.958
B14 | 0.925
B15 | 0.641
B16 | 0.611
B17 | 0.883
B18 | 2.74
B19 | 2.18
B20 | 0.434
B21 | 0.397
B22 | 4.35
